Measurements reported in the RNAGym collection of RNA variant scans (doi:10.7554/elife.90254).
Read counts are not given, so values of variants with three or more changes are uncertain.

B1: LINE1-mini (parent)
chain: GGCAGAGCUCAACACAGCGUGGCAAAGUGGCUGUGGCUAGACUGCC

Variants of: B1
Test: self-cleavage, relative activity (ratio to wild type); higher = more cleavage; in vitro, sequencing; the parent is a self-cleaving ribozyme
For GGCAGAGCUCAACACAGCGUGGCAAAGUAUCUGUGGCUAGGCUGCA [G29A G30U A41G C46A], the self-cleavage was 0.05. For GGCACAGCUCAACACAGCGUGGCAAAGGGGCUGUGGCUCGACUGCC [G5C U28G A39C], the self-cleavage was 0.02. In the case of GGCAUAGCUCAACACAGCGAGGCAAAGUGGCUCUGGCUAGACUGCC [G5U U20A G33C], the self-cleavage is reported as 0.04. With GGCAGAGCGUAACACACCGUGGCAACGUGGCUCUGGCUAGACUGCC [U9G C10U G17C A26C G33C] the self-cleavage was 0.02. GGAAGAGCUCAUCACAGCGUGGCAAAGUGGCUGUGGCUAAACUGCC [C3A A12U G40A] showed a self-cleavage of 0.18. GGCAGAUAUCAACCCAGCAUGGCAAAGUUGCUGUGGAUAGACUGCC [G7U C8A A14C G19A G29U C37A] showed a self-cleavage of 0.09. GGAAGAGCCCAACACAGCGUAGCAAAGUGGCUGUGGCUAGACUGCC [C3A U9C G21A] gave a self-cleavage of 0.26. Work on GGUAGAGCACUACACAGCGUGGAAAAGUGGGUGUGGCUAGACUGCC [C3U U9A A11U C23A C31G] yielded a self-cleavage of 0.01. GGCAGAGCUCAAAACAGCCUGGCAAAGUGGCUGUGGCUAGACGGUC [C13A G19C U43G C45U] showed a self-cleavage of 0.04. Work on GGCAGAGCCCAACACAGCUUGGCAAAGUGGCUGUGGGUAGACUGCC [U9C G19U C37G] yielded a self-cleavage of 0.02. Variant GGCAGAGCUCAACACAGCGUGGCAUAGUGGCCGCGGCUAGACUGCC [A25U U32C U34C] has a self-cleavage of 0.02. GGCAGAGCUCAACACAGCGUUACAAAGUGGCUAUGGCUAGACUGCU [G21U G22A G33A C46U] showed a self-cleavage of 0.09. Variant GGCAGAGCUCAGCACGGCGUGGCAUAGUGGGUGUGGCUAGACUGCC [A12G A16G A25U C31G] has a self-cleavage of 0.02. GGCAGAGCCCAACACAGCGUGGCUAAGUGACUGUCGCUAUACUGCA [U9C A24U G30A G35C G40U C46A] showed a self-cleavage of 0.01. CGUAGAGCUCAACACAGCUUGGCAAAGUGGCUGUGGCUAGACUGCA [G1C C3U G19U C46A] showed a self-cleavage of 0.11. With GGAAGAGCACAACACAGCGUGGUAAAGUGUCUGUGGCUAGACUGCC [C3A U9A C23U G30U] the self-cleavage was 0.33. GGCAGAGCUCAACACAGCCUGGCAUAGUGGCUGUGGAUAGAUUGCC [G19C A25U C37A C42U] gave a self-cleavage of 0.02. CGCAGAGCUAAACACAGCAUGGCUAAGUGGCUGUUGCUAGGCUGCC [G1C C10A G19A A24U G35U A41G] showed a self-cleavage of 0.01. Work on UUGAGAGCUCAGCACAGUGUGGCCAAGUGGCUGUGGCUAGACUGCC [G1U G2U C3G A12G C18U A24C] yielded a self-cleavage of 0.14. For GGCAGAGCUCAUCACUGCGUGGCAAAGUGGCUGUUGCUAGACUGCC [A12U A16U G35U], the self-cleavage was 0.02. Work on GGCCGAGCUCAACAUAGCGUGGCUAAGUGGCUGUGGCUAGACAGCC [A4C C15U A24U U43A] yielded a self-cleavage of 0.56. GACAGAGCUCAACACAGCGUGGCAAAGUGGCUGUGGCUAGUCUGGC [G2A A41U C45G] showed a self-cleavage of 0.25. GACAGAGGUCAACACAGCGUGGCAAAGUAGCUGUGGCUAGAAGGCC [G2A C8G G29A C42A U43G] showed a self-cleavage of 0.07. With GGCAGAGCUCAACACAGCGUGGAAAAGUGGCUAUUGCUAAACUGCC [C23A G33A G35U G40A] the self-cleavage was 0.07. With GGCAGAGCUCAACACAGCGUGGCAAAGUGGCGGUGGCAAGACUGCG [U32G U38A C46G] the self-cleavage was 0.02. In the case of GGCAGAGCACAACACAGCGUGCCAAAGUGGAUGUGGCUAGACGGCC [U9A G22C C31A U43G], the self-cleavage is reported as 0.01. GGCAGAGCUCAUCACAGCGUAUCAAAUUGGCUUUGGCUACACUGCU [A12U G21A G22U G27U G33U G40C C46U] gave a self-cleavage of 0. In the case of UGCAGAGCUCAACACAGCGUGGCAAAGUGGCUGUGGCUAUACUCCC [G1U G40U G44C], the self-cleavage is reported as 0.18. For GGCAGAGCCCAACUCAGCGUGGCAAAGUGGCUGUUGCUAUACUGCC [U9C A14U G35U G40U], the self-cleavage was 0.03. GGCAGAGCUCAACACACCGUGGCAAAGUGGCUUUGGCUAGUCUGCC [G17C G33U A41U] showed a self-cleavage of 0.01. Variant GGCAUAGCUCAAGACAGCGUGGCAAAGUGGCUGUGACUAGACUGCC [G5U C13G G36A] has a self-cleavage of 0.2. Variant GGCAGAGUUCAACACAGAGUGGCAAGGUGGCUCUGGCUAGACUGAC [C8U C18A A26G G33C C45A] has a self-cleavage of 0.01. In the case of GUCAGAGCUCAACAUAGCGUGGCAAAGUGGCUGUGGCUAGACUGUC [G2U C15U C45U], the self-cleavage is reported as 0.02. GACAGAGCCCAACACAGCGUGACAAUGUGGCUGUGGUUAGACUGCC [G2A U9C G22A A26U C37U] showed a self-cleavage of 0.04. For GCCAGAGCUUAACACAGAGUGGCAAAGUAGCUGUCGCUAGACUGCC [G2C C10U C18A G29A G35C], the self-cleavage was 0.03. In the case of GGCAGAGCGCAACACAGCGUGGUGAAGUGGCUGUGGCUUGACUGCC [U9G C23U A24G A39U], the self-cleavage is reported as 0.03. Variant GGGAGAGCUCAACAUAGCGCGGGAAAGUGGCUGUGGCUAGACUGCC [C3G C15U U20C C23G] has a self-cleavage of 0.37. GACACAGCUCAACACAGGGUGACAAAGUGGCUGUGGCUAGACUGCC [G2A G5C C18G G22A] showed a self-cleavage of 0.07. In the case of GGCAGAGCUCAACACAGCGUGAAAAAGUGGCUGUGGCUAGUCUGCC [G22A C23A A41U], the self-cleavage is reported as 0.24. Variant GGAACAGCUCAACACAGCGGGGCAAAGUGGCUGUGGCUAGACUGCC [C3A G5C U20G] has a self-cleavage of 0.15. With GCCUGAGCUCAACACAGCGUGUCAAAGUGGCUGUGGCUAGACUUCC [G2C A4U G22U G44U] the self-cleavage was 0.03. GGCAAAGUUCAACACUGCGUGGCAAAGUGGCUGUGGCUAGACUGCC [G5A C8U A16U] showed a self-cleavage of 0.36. GGCAAAGCUUAACACAGCGUCACAAAGUGGCUGUGGCUAGACUGCC [G5A C10U G21C G22A] gave a self-cleavage of 0.01. For GUAAGAGCUCAACACAGCGUGGCAAAGGGGCUGUGGCUAGACUGCC [G2U C3A U28G], the self-cleavage was 0.04. Work on GGCAGAGCUCAACACAUCGUGGCAAAGUGGCUGUCGUUAGACUGCC [G17U G35C C37U] yielded a self-cleavage of 0.06. With GGCAGAGCUCCACACAGGUUUGCAAAGUGGCUGUGGCUAGAAUGCC [A11C C18G G19U G21U C42A] the self-cleavage was 0.02. GGCAGAGCUCAACACAGUGUGGCAAAGUGGCUGUGGGUUGACCGCC [C18U C37G A39U U43C] gave a self-cleavage of 0.04. GGCAGAGCUCAACACAUCGUGGAAAGGUGGCUGUGGUUGGAGUGCC [G17U C23A A26G C37U A39G C42G] showed a self-cleavage of 0.01. With UACAGAGCUUAACACAGCGUGGCAUAGUGGCUGUGGCUAGACUGCC [G1U G2A C10U A25U] the self-cleavage was 0.12. GGCAGAGCUCAACAGAGCUUGACAAAGUGGCUGUGGCUAUAUUUCC [C15G G19U G22A G40U C42U G44U] gave a self-cleavage of 0.01. Variant GGAAGAGCUAAACACAGCGUGCCAAAGUGGCUGUGGCUAGACUGCC [C3A C10A G22C] has a self-cleavage of 0.02. Work on GGCAGAGCUCAACACAGCGUUUCAAAGUGGUUGUGGCUAGACGGCC [G21U G22U C31U U43G] yielded a self-cleavage of 0. With GGCAGAGUUCCACACAGCGUGGCAAAGUGGCUGUGGCUCGACUGCC [C8U A11C A39C] the self-cleavage was 0.02. For GGCAGAGCUCAACCCAGCGUGGCAAAGUAGUUGUGGCUAGACUACC [A14C G29A C31U G44A], the self-cleavage was 0.05. GACAGAGCCGGACACAGCGUGGCAAAGUGGCUGUGGCUAGACUGCC [G2A U9C C10G A11G] gave a self-cleavage of 0.04. GGCAGAGCUCAACACAGAGUGGCAAAGUGGCUGUGGCUGGAGUGCC [C18A A39G C42G] showed a self-cleavage of 0.07.
